Data from US20250270339A1 (Alector, published 2025).

T1: Cyno TfR ECD Avi-His (cynomolgus macaque, UniProt Q5RDH6 89-760 (Pongo abelii entry), biotin on the Avi tag (BirA) where captured on streptavidin)
T1 construct: also called Cyno TfR Avi-His; cyno TfR Avi-His
T1 chain: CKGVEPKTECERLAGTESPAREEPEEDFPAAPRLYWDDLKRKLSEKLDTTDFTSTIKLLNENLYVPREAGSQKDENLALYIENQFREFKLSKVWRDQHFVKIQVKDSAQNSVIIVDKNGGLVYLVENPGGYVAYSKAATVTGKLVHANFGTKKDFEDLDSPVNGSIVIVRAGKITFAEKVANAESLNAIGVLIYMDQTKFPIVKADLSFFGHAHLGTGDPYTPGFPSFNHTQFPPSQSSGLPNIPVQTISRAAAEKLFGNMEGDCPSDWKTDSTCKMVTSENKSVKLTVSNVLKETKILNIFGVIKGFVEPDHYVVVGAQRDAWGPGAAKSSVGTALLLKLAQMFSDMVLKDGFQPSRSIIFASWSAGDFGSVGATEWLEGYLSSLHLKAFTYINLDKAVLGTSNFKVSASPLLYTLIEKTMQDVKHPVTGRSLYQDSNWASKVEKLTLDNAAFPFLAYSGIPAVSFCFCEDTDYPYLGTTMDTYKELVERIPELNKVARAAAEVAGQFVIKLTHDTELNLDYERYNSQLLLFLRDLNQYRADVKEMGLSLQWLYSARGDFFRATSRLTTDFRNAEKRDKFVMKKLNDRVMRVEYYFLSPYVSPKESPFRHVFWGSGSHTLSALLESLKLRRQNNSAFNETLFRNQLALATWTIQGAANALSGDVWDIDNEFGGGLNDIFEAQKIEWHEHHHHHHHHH

B1: TfR9.1B.22 2+1 anti-TfR bispecific antibody (bispecific antibody, human IgG1, kappa)
heavy 1: EVRLLESGGGLVQPGGSLRLSCAASGFTFSNYAMGWVRQAPGKGLEWVSAISGSGGSTYYADSVKGRFTTSRDDSKNALYLQMNSLRAEDTAVYYCARGGPGWYAADVWGQGTTVTVSSASTKGPSVFPLAPSSKSTSGGTAALGCLVKDYFPEPVTVSWNSGALTSGVHTFPAVLQSSGLYSLSSVVTVPSSSLGTQTYICNVNHKPSNTKVDKKV[here human IgG1 Fc with changes without letters]GGGGSGGGGSGGGGSQVQLVQSGAEVKKPGASVKVSCKASGYTFTEYAMHWVRQAPGQGLEWMGGINPKDGGTSYNQKFKGRVTMTVDTSTSTAYMELSSLRSEDTAVYYCASQGWLLRGGDYWGQGTLVTVSSGGSEGKSSGSGSESKSTGGSDVVMTQSPLSLPVTLGQPASISCKSSQSLLDSDGKTYLNWLQQRPGQSPRRLIYLVSKLDSGVPDRFSGSGSGTDFTLKISRVEAEDVGVYYCWQGTHFPQTFGGGTKVEIK
heavy 2: EVRLLESGGGLVQPGGSLRLSCAASGFTFSNYAMGWVRQAPGKGLEWVSAISGSGGSTYYADSVKGRFTTSRDDSKNALYLQMNSLRAEDTAVYYCARGGPGWYAADVWGQGTTVTVSS[here human IgG1 constant region with changes without letters]
light: DIQMTQSPSSLSASVGDRVTITCRASQSISSYLNWYQQKPGKAPKLLIYAASSLQSGVPSRFSGSGSGTDFTLTISSLQPEDFATYYCQQADLPAFAFGGGTKVEIKRTVAAPSVFIFPPSDEQLKSGTASVVCLLNNFYPREAKVQWKVDNALQSGNSQESVTEQDSKDSTYSLSSTLTLSKADYEKHKVYACEVTHQGLSSPVTKSFNRGEC
notes: 2+1
B2: TfR9.1B.24 2+1 anti-TfR bispecific antibody (bispecific antibody, human IgG1, kappa)
heavy 1: EVRLLESGGGLVQPGGSLRLSCAASGFTFSNYAMGWVRQAPGKGLEWVSAISGSGGSTYYADSVKGRFTTSRDDSKNALYLQMNSLRAEDTAVYYCARGGPGWYAADVWGQGTTVTVSSASTKGPSVFPLAPSSKSTSGGTAALGCLVKDYFPEPVTVSWNSGALTSGVHTFPAVLQSSGLYSLSSVVTVPSSSLGTQTYICNVNHKPSNTKVDKKV[here human IgG1 Fc with changes without letters]GGGGSGGGGSGGGGSQVQLVQSGAEVKKPGASVKVSCKASGYTFTEYAMHWVRQAPGQGLEWMGGINPNDGGTSYNQKFKGRVTMTVDTSTSTAYMELSSLRSEDTAVYYCASQRWLMRGGDYWGQGTLVTVSSGGSEGKSSSSGSESKSTGGSDVVMTQSPLSLPVTLGQPASISCKSSQSLLDSDGKTYLNWLQQRPGQSPRRLIYLVSKLDSGVPDRFSGSGSGTDFTLKISRVEAEDVGVYYCWQGTHFPQTFGGGTKVEIK
heavy 2: EVRLLESGGGLVQPGGSLRLSCAASGFTFSNYAMGWVRQAPGKGLEWVSAISGSGGSTYYADSVKGRFTTSRDDSKNALYLQMNSLRAEDTAVYYCARGGPGWYAADVWGQGTTVTVSS[here human IgG1 constant region with changes without letters]
light: B1 light
notes: 2+1
B3: TfR9.1B.26 2+1 anti-TfR bispecific antibody (bispecific antibody, human IgG1, kappa)
heavy 1: EVRLLESGGGLVQPGGSLRLSCAASGFTFSNYAMGWVRQAPGKGLEWVSAISGSGGSTYYADSVKGRFTTSRDDSKNALYLQMNSLRAEDTAVYYCARGGPGWYAADVWGQGTTVTVSSASTKGPSVFPLAPSSKSTSGGTAALGCLVKDYFPEPVTVSWNSGALTSGVHTFPAVLQSSGLYSLSSVVTVPSSSLGTQTYICNVNHKPSNTKVDKKV[here human IgG1 Fc with changes without letters]GGGGSGGGGSGGGGSQVQLVQSGAEVKKPGASVKVSCKASGYTFTEYAMHWVRQAPGQGLEWMGGINPNDGGTSYNQKFKGRVTMTVDTSTSTAYMELSSLRSEDTAVYYCASQGWLLRGGDYWGQGTLVTVSSGGSEDKSSGSGSESKSTGGSDVVMTQSPLSLPVTLGQPASISCKSSQSLLDSDGVTYLNWLQQRPGQSPRRLIYLVSKLDSGVPDRFSGSGSGTDFTLKISRVEAEDVGVYYCWQGTHFPQTFGGGTKVEIK
heavy 2: EVRLLESGGGLVQPGGSLRLSCAASGFTFSNYAMGWVRQAPGKGLEWVSAISGSGGSTYYADSVKGRFTTSRDDSKNALYLQMNSLRAEDTAVYYCARGGPGWYAADVWGQGTTVTVSS[here human IgG1 constant region with changes without letters]
light: B1 light
notes: 2+1
B4: TfR9.1B.27 2+1 anti-TfR bispecific antibody (bispecific antibody, human IgG1, kappa)
heavy 1: EVRLLESGGGLVQPGGSLRLSCAASGFTFSNYAMGWVRQAPGKGLEWVSAISGSGGSTYYADSVKGRFTTSRDDSKNALYLQMNSLRAEDTAVYYCARGGPGWYAADVWGQGTTVTVSSASTKGPSVFPLAPSSKSTSGGTAALGCLVKDYFPEPVTVSWNSGALTSGVHTFPAVLQSSGLYSLSSVVTVPSSSLGTQTYICNVNHKPSNTKVDKKV[here human IgG1 Fc with changes without letters]GGGGSGGGGSGGGGSQVQLVQSGAEVKKPGASVKVSCKASGYTFTEYAMHWVRQAPGQGLEWMGGINPNDGGTSYNQKFKGRVTMTVDTSTSTAYMELSSLRSEDTAVYYCASQRWLERGGDYWGQGTLVTVSSGGSEGKSSGSGSESKSTGGSDVVMTQSPLSLPVTLGQPASISCKSSQSLLDEDGKTYLNWLQQRPGQSPRRLIYLVSKLDSGVPDRFSGSGSGTDFTLKISRVEAEDVGVYYCWQGTHFPQTFGGGTKVEIK
heavy 2: EVRLLESGGGLVQPGGSLRLSCAASGFTFSNYAMGWVRQAPGKGLEWVSAISGSGGSTYYADSVKGRFTTSRDDSKNALYLQMNSLRAEDTAVYYCARGGPGWYAADVWGQGTTVTVSS[here human IgG1 constant region with changes without letters]
light: B1 light
notes: 2+1
B5: TfR9.1B.28 2+1 anti-TfR bispecific antibody (bispecific antibody, human IgG1, kappa)
heavy 1: EVRLLESGGGLVQPGGSLRLSCAASGFTFSNYAMGWVRQAPGKGLEWVSAISGSGGSTYYADSVKGRFTTSRDDSKNALYLQMNSLRAEDTAVYYCARGGPGWYAADVWGQGTTVTVSSASTKGPSVFPLAPSSKSTSGGTAALGCLVKDYFPEPVTVSWNSGALTSGVHTFPAVLQSSGLYSLSSVVTVPSSSLGTQTYICNVNHKPSNTKVDKKV[here human IgG1 Fc with changes without letters]GGGGSGGGGSGGGGSQVQLVQSGAEVKKPGASVKVSCKASGYTFTEYAMHWVRQAPGQGLEWMGGINPNDGGTSYNQKFKGRVTMTVDTSTSTAYMELSSLRSEDTAVYYCASQRWLQRGGDYWGQGTLVTVSSGGSEGKSSGSGSESKSTGGSDVVMTQSPLSLPVTLGQPASISCKSSQSLEDSDGKTYLNWLQQRPGQSPRRLIYLVSKLDSGVPDRFSGSGSGTDFTLKISRVEAEDVGVYYCWQGTHFPQTFGGGTKVEIK
heavy 2: EVRLLESGGGLVQPGGSLRLSCAASGFTFSNYAMGWVRQAPGKGLEWVSAISGSGGSTYYADSVKGRFTTSRDDSKNALYLQMNSLRAEDTAVYYCARGGPGWYAADVWGQGTTVTVSS[here human IgG1 constant region with changes without letters]
light: B1 light
notes: 2+1
B6: TfR9.1B.33 2+1 anti-TfR bispecific antibody (bispecific antibody, human IgG1, kappa)
heavy 1: EVRLLESGGGLVQPGGSLRLSCAASGFTFSNYAMGWVRQAPGKGLEWVSAISGSGGSTYYADSVKGRFTTSRDDSKNALYLQMNSLRAEDTAVYYCARGGPGWYAADVWGQGTTVTVSSASTKGPSVFPLAPSSKSTSGGTAALGCLVKDYFPEPVTVSWNSGALTSGVHTFPAVLQSSGLYSLSSVVTVPSSSLGTQTYICNVNHKPSNTKVDKKV[here human IgG1 Fc with changes without letters]GGGGSGGGGSGGGGSQVQLVQSGAEVKKPGASVKVSCKASGYTFTEYAMHWVRQAPGQGLEWMGGINPNDGGTSYNQKFKGRVTMTVDTSTSTAYMELSSLRSEDTAVYYCASQRWLYRGGDYWGQGTLVTVSSGGSEGKSSGSGSESKSTGGSDVVMTQSPLSLPVTLGQPASISCKSSQSLLDEDGKTYLNWLQQRPGQSPRRLIYQVSKLDSGVPDRFSGSGSGTDFTLKISRVEAEDVGVYYCWQGTHFPQTFGGGTKVEIK
heavy 2: EVRLLESGGGLVQPGGSLRLSCAASGFTFSNYAMGWVRQAPGKGLEWVSAISGSGGSTYYADSVKGRFTTSRDDSKNALYLQMNSLRAEDTAVYYCARGGPGWYAADVWGQGTTVTVSS[here human IgG1 constant region with changes without letters]
light: B1 light
notes: 2+1

Target: T1, Cyno TfR ECD Avi-His
Assay: SPR (Carterra LSA), 2+1 immobilised
Description: The remaining unconjugated active groups on the chip were then blocked by injecting 1M Ethanolamine pH 8.5 (Carterra) for 7 minutes using the single channel flow cell.
Estimates of affinity were generated by injecting each analyte over the entire antibody array using the single channel flow cell. […] Data were processed and analyzed using NextGenKIT high-throughput kinetics analysis software (Carterra).

Row | Binder | binding result
1 | B1 | binds
2 | B2 | binds
3 | B3 | binds
4 | B4 | binds
5 | B5 | binds
6 | B6 | binds
